# The other results are listed elsewhere or left out. These are further read-outs of the screen, such as a control signal, another cell line or another target. No call is given for them.
# What was measured:
# Test in all cases: Primary Screen for Target Class Profiling of Small Molecule Inhibitors of Methyltransferases
# [1] = target: Glycine N-methyltransferase (Homo sapiens) (UniProt Q14749); conditions: purified enzyme, MTase-Glo SAH luminescence; measured here: GNMT inhibition; at 40 µM; stronger effect = lower value
# Method in brief: (§1)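 Each enzyme was assayed with SAM and its substrate. SAH formation detected by MTase-Glo luminescence; single-point 40 uM screen[…].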
# [2] = target: Guanidinoacetate N-methyltransferase (Homo sapiens) (UniProt Q14353); conditions: purified enzyme, MTase-Glo SAH luminescence; measured here: GAMT inhibition; at 40 µM; stronger effect = lower value
# Method in brief: as §1
# [3] = target: Histamine N-methyltransferase (Homo sapiens) (UniProt P50135); conditions: purified enzyme, MTase-Glo SAH luminescence; measured here: HNMT inhibition; at 40 µM; stronger effect = lower value
# Method in brief: as §1
# [4] = target: Nicotinamide N-methyltransferase (Homo sapiens) (UniProt P40261); conditions: purified enzyme, MTase-Glo SAH luminescence; measured here: NNMT inhibition; at 40 µM; stronger effect = lower value
# Method in brief: as §1
# [5] = target: Phenylethanolamine N-methyltransferase (Homo sapiens) (UniProt P11086); conditions: purified enzyme, MTase-Glo SAH luminescence; measured here: PNMT inhibition; at 40 µM; stronger effect = lower value
# Method in brief: as §1
# % is scaled to controls: 0 for no effect and ±100 for the full control effect.
compound,measurement,setting,value
O=c1c2ccccc2n2c(-c3ccc(Br)cc3)nnc2n1Cc1ccccc1,"activity change, negative = inhibition",[1],-0.74%
same,"activity change, negative = inhibition",[2],0%
same,"activity change, negative = inhibition",[3],2.34%
same,"activity change, negative = inhibition",[4],5.32%
same,"activity change, negative = inhibition",[5],-0.61%
CSc1cccc(N2C(=O)c3cc(-c4ccco4)nn3CC2(C)C(=O)NC2CCCCC2)c1 (stereo not given),"activity change, negative = inhibition",[1],-18.3%
same,"activity change, negative = inhibition",[2],-11.9%
same,"activity change, negative = inhibition",[3],-8.22%
same,"activity change, negative = inhibition",[4],-8.99%
same,"activity change, negative = inhibition",[5],-8.32%
CC(=O)NC(Cc1ccccc1)C(=O)O (stereo not given),"activity change, negative = inhibition",[1],0%
same,"activity change, negative = inhibition",[2],-11.4%
same,"activity change, negative = inhibition",[3],-3.25%
same,"activity change, negative = inhibition",[4],-20.5%
same,"activity change, negative = inhibition",[5],-3.2%
CCCNC(=O)N(C1CCOCC1)C1CCN(C(=O)c2nn(C)c3ccccc23)CC1,"activity change, negative = inhibition",[1],-0.608%
same,"activity change, negative = inhibition",[2],0.688%
same,"activity change, negative = inhibition",[3],0.457%
same,"activity change, negative = inhibition",[4],-6.15%
same,"activity change, negative = inhibition",[5],9.59%
N#Cc1ccc(CN2CCC3(CNc4ccccc4[S+](=O)([O-])N3)C2)cc1 (stereo not given),"activity change, negative = inhibition",[1],-5.55%
same,"activity change, negative = inhibition",[2],-4.92%
same,"activity change, negative = inhibition",[3],-0.98%
same,"activity change, negative = inhibition",[4],-4.56%
same,"activity change, negative = inhibition",[5],-5.98%
CCOC(=O)C(Cc1cccc(N2CCN([S+](=O)([O-])c3ccccc3Cl)CC2)c1)OC (stereo not given),"activity change, negative = inhibition",[1],-6.23%
same,"activity change, negative = inhibition",[2],-6.58%
same,"activity change, negative = inhibition",[3],-2.35%
same,"activity change, negative = inhibition",[4],-26.9%
same,"activity change, negative = inhibition",[5],-9.23%
O=C(c1n[nH]c2ccccc12)N1CC2CC(C1)[C@H]1CCCC(=O)N1C2 (stereo not given in full),"activity change, negative = inhibition",[1],-2.58%
same,"activity change, negative = inhibition",[2],-0.99%
same,"activity change, negative = inhibition",[3],-1.04%
same,"activity change, negative = inhibition",[4],-8.7%
same,"activity change, negative = inhibition",[5],9.66%
Nc1ccc(-n2nc(C(F)(F)F)cc2C(F)(F)F)cc1,"activity change, negative = inhibition",[1],4.35%
same,"activity change, negative = inhibition",[2],12.3%
same,"activity change, negative = inhibition",[3],13.3%
same,"activity change, negative = inhibition",[4],-2.15%
same,"activity change, negative = inhibition",[5],9.69%
CCC(C)NC(=O)c1ccc2c(=O)n(C(C)C)c3nn(CC(=O)NC(C)C)c(=O)n3c2c1 (stereo not given),"activity change, negative = inhibition",[1],5.17%
same,"activity change, negative = inhibition",[2],0%
same,"activity change, negative = inhibition",[3],6.35%
same,"activity change, negative = inhibition",[4],1%
same,"activity change, negative = inhibition",[5],2.71%
NCCc1cnc[nH]1,"activity change, negative = inhibition",[1],4.09%
same,"activity change, negative = inhibition",[2],11.4%
same,"activity change, negative = inhibition",[3],92%
same,"activity change, negative = inhibition",[4],-0.9%
same,"activity change, negative = inhibition",[5],10.2%
COc1ccc(CN2C(=O)c3cc4ccccc4n3CC2(C)C(=O)NCc2ccccc2)cc1 (stereo not given),"activity change, negative = inhibition",[1],-4.97%
same,"activity change, negative = inhibition",[2],3.35%
same,"activity change, negative = inhibition",[3],-3.5%
same,"activity change, negative = inhibition",[4],-6.36%
same,"activity change, negative = inhibition",[5],-3%
CC(C)OCCCN1C(=O)c2cc3occc3n2CC1(C)C(=O)NC1CCCCCCC1 (stereo not given),"activity change, negative = inhibition",[1],3.23%
same,"activity change, negative = inhibition",[2],4.71%
same,"activity change, negative = inhibition",[3],10.7%
same,"activity change, negative = inhibition",[4],-0.834%
same,"activity change, negative = inhibition",[5],2.01%
CC(C)OCCCn1c(=O)c2ccccc2n2c(=O)n(CC(=O)Nc3cc(F)ccc3F)nc12,"activity change, negative = inhibition",[1],-2.41%
same,"activity change, negative = inhibition",[2],2.23%
same,"activity change, negative = inhibition",[3],1.78%
same,"activity change, negative = inhibition",[4],-7.73%
same,"activity change, negative = inhibition",[5],-8.11%
Cc1ccc(CNC(=O)N2CCn3cccc3C2C(C)C)cc1 (stereo not given),"activity change, negative = inhibition",[1],13.1%
same,"activity change, negative = inhibition",[2],2.05%
same,"activity change, negative = inhibition",[3],9.82%
same,"activity change, negative = inhibition",[4],2.68%
same,"activity change, negative = inhibition",[5],9.58%
O=C(Cn1ccc2cc(S(=O)(=O)N3CCCC3)ccc21)NC1CCCC1,"activity change, negative = inhibition",[1],3.11%
same,"activity change, negative = inhibition",[2],0%
same,"activity change, negative = inhibition",[3],0.229%
same,"activity change, negative = inhibition",[4],4.32%
same,"activity change, negative = inhibition",[5],-0.052%
CCCn1c(=O)c2ccc(C(=O)NCC(C)C)cc2n2c(SCC(=O)c3ccc(OC)cc3)nnc12,"activity change, negative = inhibition",[1],2.39%
same,"activity change, negative = inhibition",[2],0%
same,"activity change, negative = inhibition",[3],2.22%
same,"activity change, negative = inhibition",[4],5.47%
same,"activity change, negative = inhibition",[5],2.25%
C=C(C)[C@@H]1CC[C@]2(C(=O)O)CC[C@]3(C)[C@H](CCC4[C@@]5(C)CCC(=O)C(C)(C)C5C(O)C[C@]43C)C12 (stereo not given in full),"activity change, negative = inhibition",[1],0%
same,"activity change, negative = inhibition",[2],-5.87%
same,"activity change, negative = inhibition",[3],0.281%
same,"activity change, negative = inhibition",[4],-17.7%
same,"activity change, negative = inhibition",[5],-0.395%
C[C@H](NCc1ccc(OCc2ccccc2F)cc1)C(N)=O,"activity change, negative = inhibition",[1],4.96%
same,"activity change, negative = inhibition",[2],9.14%
same,"activity change, negative = inhibition",[3],9.04%
same,"activity change, negative = inhibition",[4],-9.69%
same,"activity change, negative = inhibition",[5],5.83%
CC(CNC(=O)c1cc2n(n1)CC(C)(C(=O)NC1CCCCCC1)N(C)C2=O)c1ccccc1 (stereo not given),"activity change, negative = inhibition",[1],8.79%
same,"activity change, negative = inhibition",[2],2.51%
same,"activity change, negative = inhibition",[3],3.89%
same,"activity change, negative = inhibition",[4],10.2%
same,"activity change, negative = inhibition",[5],4.33%
Cc1ccc(NC(=O)C(=O)NC2CC(C)(C)NC(C)(C)C2)cc1,"activity change, negative = inhibition",[1],3.51%
same,"activity change, negative = inhibition",[2],0.15%
same,"activity change, negative = inhibition",[3],0.137%
same,"activity change, negative = inhibition",[4],-11.5%
same,"activity change, negative = inhibition",[5],-3.59%
COc1cccc(N2C(=O)c3cc4oc(C)cc4n3CC2(C)C(=O)NC2CCCCCC2)c1 (stereo not given),"activity change, negative = inhibition",[1],-4.04%
same,"activity change, negative = inhibition",[2],4.26%
same,"activity change, negative = inhibition",[3],-4.36%
same,"activity change, negative = inhibition",[4],3.07%
same,"activity change, negative = inhibition",[5],-3.14%
O=C(c1ccccc1Cl)N1CCCC(C(=O)N2CCC(c3ccccc3)CC2)C1 (stereo not given),"activity change, negative = inhibition",[1],-6.22%
same,"activity change, negative = inhibition",[2],0.321%
same,"activity change, negative = inhibition",[3],-0.89%
same,"activity change, negative = inhibition",[4],-14.4%
same,"activity change, negative = inhibition",[5],3.42%
O=C(Cn1ccc2cc(S(=O)(=O)N3CCCCC3)ccc21)NC1CCCCC1,"activity change, negative = inhibition",[1],6.6%
same,"activity change, negative = inhibition",[2],0%
same,"activity change, negative = inhibition",[3],1.56%
same,"activity change, negative = inhibition",[4],5.06%
same,"activity change, negative = inhibition",[5],-0.199%
CCO[C@H]1CN(C(=O)Cc2ccccc2OCc2ccccc2)C[C@@H]1O,"activity change, negative = inhibition",[1],-5.32%
same,"activity change, negative = inhibition",[2],-6.78%
same,"activity change, negative = inhibition",[3],-3.26%
same,"activity change, negative = inhibition",[4],-6.65%
same,"activity change, negative = inhibition",[5],-5.01%
CN(CC(=O)N1CCC(Cc2ccccc2)CC1)S(=O)(=O)c1ccc2c(c1)CCC(=O)N2,"activity change, negative = inhibition",[1],-2.85%
same,"activity change, negative = inhibition",[2],1.39%
same,"activity change, negative = inhibition",[3],6.3%
same,"activity change, negative = inhibition",[4],5.12%
same,"activity change, negative = inhibition",[5],1.84%
CCC(C)/C=C(C)/C=C/C1=CC2=C(Cl)C(=O)C(C)(OC(C)=O)C(=O)C2=CN1C1CCCCN(C(CCC(N)=O)C(=O)O)C1=O (stereo not given),"activity change, negative = inhibition",[1],-3.72%
same,"activity change, negative = inhibition",[2],-7.93%
same,"activity change, negative = inhibition",[3],4.66%
same,"activity change, negative = inhibition",[4],-19.6%
same,"activity change, negative = inhibition",[5],-2.69%
CNC(=O)[C@H]1C[C@]2(CCCCNC2=O)N(C(=O)c2cccc(C#N)c2)[C@H]1c1ccco1,"activity change, negative = inhibition",[1],-8.04%
same,"activity change, negative = inhibition",[2],-13.3%
same,"activity change, negative = inhibition",[3],-5.54%
same,"activity change, negative = inhibition",[4],-16.4%
same,"activity change, negative = inhibition",[5],-23.3%
CC1(C(=O)NC2CCCCCCC2)Cn2c(cc3sccc32)C(=O)N1Cc1cccs1 (stereo not given),"activity change, negative = inhibition",[1],3.22%
same,"activity change, negative = inhibition",[2],0.442%
same,"activity change, negative = inhibition",[3],7.7%
same,"activity change, negative = inhibition",[4],-12.1%
same,"activity change, negative = inhibition",[5],3.54%
CCCn1c(=O)c2ccccc2n2c(SCC(=O)Nc3cc(C)cc(C)c3)nnc12,"activity change, negative = inhibition",[1],4.23%
same,"activity change, negative = inhibition",[2],0.956%
same,"activity change, negative = inhibition",[3],9.87%
same,"activity change, negative = inhibition",[4],0.753%
same,"activity change, negative = inhibition",[5],2.83%

# — PubChem BioAssay AID1745853 (National Center for Advancing Translational Sciences (NCATS), 2022)
